According to PubChem BioAssay AID651820 (National Center for Advancing Translational Sciences (NCATS), 2012):
Where “and” joins values, the source holds several entries; their conditions need not be identical. Equal entries are not always repeated. The campaign covered roughly 340,000 compounds. About 12,000 (3.5%) were called active. Inconclusive results, whose numbers are uncertain, are shown with a selection of clear calls. The call rests on the fitted dose curve; in most records, active means well fitted inhibition curve with a large enough effect; inconclusive means small, poorly fitted or top-dose-only effect, or another doubt; inactive means no such curve, though single readings can be large or run the other way. A potency beside an inconclusive call is a rough fit, not a confirmed value.

Assay: qHTS Assay for Inhibitors of Hepatitis C Virus (HCV)
Details: Huh7.5.1 HCVcc-Cre (HCVcc is cell-culture hepatitis C virus) infection, luciferase reporter, 44 h; activity change, negative = inhibition: at 41.8 µM (top of the series)
How it was run: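 Seed cells (1,000/well) for 4 h; treat with compound and infect with HCVcc-Cre, moi about 0.5. Incubate 44 h, then detect luciferase activity.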
On the % scale 0 is the no-effect control and ±100 the full control effect; potency means the concentration at half of the fitted maximal effect; tags describe the fitted curve by direction and shape.

SMILES	activity change, negative = inhibition	Potency
COc1ccccc1-c1nnc(-c2ccc(C)cc2)o1	inconclusive: -48.8% [inhibitor]	–
O=S(=O)(c1ccccc1)N1CN(c2ccc(F)cc2F)c2nc3ccccc3nc21	–	inconclusive: 5.62 µM [inhibitor, full curve]
COc1ccccc1/C=C/C=N/n1c(COc2ccccc2)n[nH]c1=S	inactive: 7.57%	–
O=C(Nc1ccccc1)Nc1cc(OCC(F)(F)F)cc(OCC(F)(F)F)c1	–	active: 6.31 µM
Cc1ccc(OCCC(=O)NNC(=O)c2nn(C)c(=O)c3ccccc23)cc1	inactive: 8.47%	–
O=C(CSc1nnc(NC(=O)c2ccco2)s1)Nc1ccccc1Br	inactive: -5.26%	–
COc1ccc(CN(C)C(C)C(=O)Nc2ccc(S(=O)(=O)N3CCCCC3)cc2)cc1F (stereo not given)	–	inconclusive: 6.31 µM [inhibitor, partial curve]
COc1cc(-c2nnn(Cc3ccccc3C)n2)cc(OC)c1OC	–	inconclusive: 7.94 µM [inhibitor, partial curve]
CCCCC(O)(CCCC)C(=O)N/N=C(\C)c1ccc(Cl)cc1	inactive: -17.6%	–
O=Nc1[nH]c(=O)c(/C=C(\O)c2ccccc2)nc1NO	–	inconclusive: 10 µM [inhibitor, partial curve]
O=S(=O)(Cc1cc(Cl)nc(-c2cccnc2)n1)c1ccccc1	–	inconclusive: 31.6 µM [inhibitor, single point]
CC(=O)N1CCN(c2ccccc2NC(=O)c2ccc(-c3cccc([N+](=O)[O-])c3)o2)CC1	–	inconclusive: 11.2 µM [inhibitor, partial curve]
O=C(COc1ccc(S(=O)(=O)NC2CCCCC2)cc1Cl)Nc1ccc2c(c1)OCO2	–	inconclusive: 31.6 µM [inhibitor, single point]
Cc1ccc(S(=O)(=O)N2CCN(C(=O)c3ccccc3OCc3c(C)noc3C)CC2)cc1	–	active: 0.562 µM
CC(C)(C)NC(=O)C(=O)N/N=C/c1cccs1	inactive: -1.48%	–
O=C(NCc1ccccc1F)c1ccc(S(=O)(=O)NCc2ccco2)cc1	–	inconclusive: 20 µM [inhibitor, single point]
O=C(c1ccccn1)N1CCN(S(=O)(=O)c2cccc(Br)c2)CC1	–	inconclusive: 10 µM [inhibitor, partial curve]
Cc1ccc(NC(=O)c2cccc(S(=O)(=O)N3CCN(C)CC3)c2)cc1F	–	active: 12.6 µM
O=C(N/N=C/c1ccc(O)cc1O)c1ccc(CN2C(=O)c3cccc4cccc2c34)cc1	–	inconclusive: 3.16 µM [inhibitor, full curve]
COc1ccccc1CC(=O)Nc1nc(-c2ccc(F)c(F)c2)cs1	–	active: 10 µM
O=C(C=Cc1ccccc1O)c1ccccc1O	–	inconclusive: 22.4 µM [inhibitor, single point]
CCn1c(=O)cc(SCC(=O)NCc2ccc(C)cc2)c2ccccc21	inactive: -26.4%	–
CCN(CC(=O)NC(C)(C)C)Cc1cc(=O)n2c(-c3ccccc3)csc2n1	–	inconclusive: 3.55 µM [inhibitor, single point]
COc1ccc(NC(=O)Cn2cc(C(C)=O)c3ccccc32)cc1	–	inconclusive: 4.47 µM [inhibitor, partial curve]

SMILES	activity change, negative = inhibition	Potency
CCC1(C2=CCCCC2)C(=O)NC(=O)N=C1N (stereo not given)	inactive: 2.31%	–
Cc1cc(C)nc(SCc2nnc(SCC(=O)Nc3ccc(Cl)c(C(F)(F)F)c3)o2)n1	–	inactive
Cc1cc2nc(-c3ccc(SCc4ccccc4C#N)nc3)[nH]c2cc1C	–	inconclusive: 7.08 µM [inhibitor, partial curve]
CCCCC1CC1C(=O)Nc1ccc(OC)c(OC)c1 (stereo not given)	–	inconclusive: 14.1 µM [inhibitor, partial curve]
CCN(CC)CCO	–	inconclusive: 31.6 µM [inhibitor, single point]
O=S(=O)(Nc1cccc(-c2cn3c(n2)SCC3)c1)c1ccc(F)cc1F	inactive: 5.83%	–
CCc1nn(C(CC)C(=O)NCc2cccc(OC)c2OC)c(=O)c2cc3occc3n12 (stereo not given)	–	inconclusive: 10 µM [inhibitor, partial curve]
NC(=O)CC(NC(=O)Cc1cccc2ccccc12)c1ccc(N2CCN(c3ccccn3)CC2)c([N+](=O)[O-])c1 (stereo not given)	inactive: 5.55%	–
O=C(NCc1ccco1)C(=O)NCc1ccccc1Cl	inactive: 5.71%	–
CCOc1ccc(-n2cc(-c3ccccc3)c3c(=S)nc[nH]c32)cc1	–	inconclusive: 14.1 µM [inhibitor, single point]
CSCc1c(C(=O)Nc2ccc(N3CCOCC3)cc2)oc2ccccc12	inactive: 1.34%	–
Cc1cc(C)c(C#N)c(SCc2nnc(-c3ccccc3[N+](=O)[O-])o2)n1	–	inconclusive: 22.4 µM [inhibitor, single point]
COc1ccc(C(=O)C2CCCN(C(=O)CCc3scnc3C)C2)c(C)c1 (stereo not given)	–	inconclusive: 11.2 µM [inhibitor, single point]
O=C(c1ccc2c(=O)n(Cc3ccco3)c(=S)[nH]c2c1)N1CCN(Cc2ccccc2)CC1	–	inconclusive: 0.891 µM [inhibitor, full curve, poor fit]
CCc1ccccc1NC(=O)CN(C)C(=O)c1cccc(S(=O)(=O)N2CCCCCC2)c1	–	inconclusive: 8.91 µM [inhibitor, partial curve]
C/C(=N\NC(=O)COc1ccccc1[N+](=O)[O-])c1cccc(NC(=O)c2ccncc2)c1	–	inconclusive: 0.501 µM [inhibitor, full curve, poor fit]
Oc1ccc(C(=S)N2CCCCC2)cc1Cl	inactive: 11.6%	–
CC(=O)O/N=C1\C(=O)N(Cc2ccc(C)cc2)c2ccccc21	inactive: -6.35%	–
CCOCCCNC(=O)C(c1ccccc1)N(Cc1cccs1)C(=O)c1ccccc1O (stereo not given)	–	inconclusive: 3.98 µM [inhibitor, single point]
Cc1ccc(NC2CCCN(C(=O)c3cc4ncccn4n3)C2)cc1C (stereo not given)	inactive: 12%	–
O=C(OCC(=O)N1CCc2ccccc21)c1ccncc1	–	inconclusive: 22.4 µM [inhibitor, single point]
CC(C)C(c1nnnn1C1CCCCC1)N1CCc2ccccc21 (stereo not given)	–	inconclusive: 14.1 µM [inhibitor, single point]
COc1ccc(Nc2cc(C(=O)NCCCN3CCN(C)CC3)c3ccccc3n2)cc1	–	inconclusive: 31.6 µM [inhibitor, single point]
CCOc1ccc(NC(=O)c2ccc(-c3csc(C)n3)cc2)cc1	–	inconclusive: 0.501 µM [inhibitor, full curve]

SMILES	activity change, negative = inhibition	Potency
COCC(C)n1c(C)cc(C(=O)CSc2nc(C)c(C)c(C)n2)c1C (stereo not given)	–	active: 10 µM
Cc1ccc(NC(=O)c2ccc(NS(=O)(=O)c3c(C)noc3C)cc2)cc1C	–	inconclusive: 7.08 µM [inhibitor, partial curve]
CCCNC(=O)N1CCC(c2nc3ccccc3s2)CC1	–	inconclusive: 31.6 µM [inhibitor, single point]
Cc1csc2nc(COC(=O)c3cccc(N(C)C)c3)cc(=O)n12	–	inconclusive: 31.6 µM [inhibitor, single point]
O=C(C1CC1)N1CCN(c2ccc(O)cc2)CC1	inactive: 11.4%	–
CCNc1nc(CN2CCOCC2)nc2sc3c(c12)CCC3	–	inconclusive: 31.6 µM [inhibitor, single point]
O=C(NCC1CCCO1)c1ccc(NC(=O)c2ccc(Br)cc2)cc1 (stereo not given)	inconclusive: -40.6% [inhibitor]	–
CC(=O)N1CCN(c2ccc(OC[C@H]3CO[C@](Cn4ccnc4)(c4ccc(Cl)cc4Cl)O3)cc2)CC1	–	inconclusive: 12.6 µM [inhibitor, single point]
CCn1c(CNC(=O)c2ccco2)nnc1SCC(=O)Nc1cc(C)c(C)cc1Br	–	inconclusive: 31.6 µM [inhibitor, single point]
COc1ccc(C(=O)NNC(=S)NC(=O)c2cc(-c3ccccc3)nc3ccccc23)cc1	–	inconclusive: 31.6 µM [inhibitor, single point]
Cc1cc2c(Nc3ccccc3)ncnc2s1	–	inconclusive: 12.6 µM [inhibitor, single point]
Cc1cc(C)c(OCC(=O)N/N=C/c2ccco2)c(C)c1	–	inconclusive: 0.562 µM [inhibitor, full curve, poor fit]
Clc1ncnc2scc(-c3ccc(Br)cc3)c12	–	inconclusive: 10 µM [inhibitor, partial curve]
COc1cc(C(=O)NNC(=O)c2ccc3ccccc3n2)cc(OC)c1OC	–	inconclusive: 14.1 µM [inhibitor, partial curve]
COc1ccc2c(CC(=O)Nc3ccc(OC)c(NS(=O)(=O)c4ccc(F)cc4)c3)coc2c1	–	inactive and inconclusive: 15.8 µM [inhibitor, single point]
COc1ccc(N2CCN(Cc3cc4c(cc3O)CCC4)CC2)cc1	–	inconclusive: 11.2 µM [inhibitor, single point]
COc1ccc(NC(=O)Nc2ccccc2SC)c(OC)c1	–	inconclusive: 3.98 µM [inhibitor, single point]
CC1CCCN(S(=O)(=O)c2ccc(C(=O)NC(C)c3ccccc3)cc2)C1 (stereo not given)	–	inconclusive: 31.6 µM [inhibitor, single point]
Nc1c(C(=O)Nc2ccccc2)sc2nc(-c3ccco3)ccc12	–	active: 11.2 µM
CCN(C(=O)CN1CCC(C(=O)OC)CC1)c1c(N)n(Cc2ccccc2)c(=O)[nH]c1=O	inactive: 11.2%	–
Cc1ccccc1Nc1scc(-c2ccc(Br)cc2)[n+]1-c1ccccc1C	–	inconclusive: 12.6 µM [inhibitor, partial curve]
CCOc1c(Cl)cc(CNCC(O)c2ccccc2)cc1OC (stereo not given)	inactive: -28.2%	–
